Measurements: PMC5700166
Only a part is listed here, and it is no random draw. The list includes weakly bound sequences.

Key:
Assay in all cases: protein-binding microarray (PBM)
Conditions in all cases: PBM: ~300 nM protein, 6 mM HEPES pH 7.8, 80 mM KCl, 0.5 mM EDTA, 0.5 mM EGTA, 6% glycerol, 35 ng/ul poly-dIdC, 1% milk, 1 h, room temperature; Ap Aiptasia and Nv Nematostella (sea anemones) / Co Capsaspora / Aq Amphimedon (sponge) / Dm Drosophila / Hu human; RHD is the Rel homology domain; high values mean tight binding; most listed sequences are background and not binding sites; double strand, one strand shown
[1] = target: T1, GST-Ap-NF-kB RHD (UniProt A0A913YAJ5)
T1 sequence: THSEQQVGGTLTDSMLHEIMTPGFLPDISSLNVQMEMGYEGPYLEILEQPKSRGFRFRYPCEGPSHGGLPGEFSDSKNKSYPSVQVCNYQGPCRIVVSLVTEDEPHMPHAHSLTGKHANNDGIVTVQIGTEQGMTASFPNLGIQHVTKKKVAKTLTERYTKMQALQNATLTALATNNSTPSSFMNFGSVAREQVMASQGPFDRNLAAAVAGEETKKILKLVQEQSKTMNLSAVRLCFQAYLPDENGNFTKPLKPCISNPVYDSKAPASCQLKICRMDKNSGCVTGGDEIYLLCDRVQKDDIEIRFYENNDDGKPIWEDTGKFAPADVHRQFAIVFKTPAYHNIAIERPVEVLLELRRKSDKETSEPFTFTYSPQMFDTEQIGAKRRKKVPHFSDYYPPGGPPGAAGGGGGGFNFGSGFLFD

[2] = target: T2, GST-Nv-NF-kB (Cys allele) (UniProt E5G601)
T2 sequence: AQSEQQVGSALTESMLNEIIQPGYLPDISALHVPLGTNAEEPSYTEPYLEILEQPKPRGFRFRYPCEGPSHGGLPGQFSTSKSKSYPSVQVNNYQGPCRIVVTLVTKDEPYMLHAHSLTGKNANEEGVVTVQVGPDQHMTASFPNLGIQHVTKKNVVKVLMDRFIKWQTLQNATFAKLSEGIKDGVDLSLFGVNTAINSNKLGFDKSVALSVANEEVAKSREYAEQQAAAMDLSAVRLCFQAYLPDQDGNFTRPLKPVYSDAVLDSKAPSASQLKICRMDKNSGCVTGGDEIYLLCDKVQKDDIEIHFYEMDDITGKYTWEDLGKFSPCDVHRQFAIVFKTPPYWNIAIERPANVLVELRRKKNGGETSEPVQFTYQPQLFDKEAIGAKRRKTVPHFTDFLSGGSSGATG

[3] = target: T3, GST-Co-NF-kB (UniProt F1ARL5)
T3 sequence: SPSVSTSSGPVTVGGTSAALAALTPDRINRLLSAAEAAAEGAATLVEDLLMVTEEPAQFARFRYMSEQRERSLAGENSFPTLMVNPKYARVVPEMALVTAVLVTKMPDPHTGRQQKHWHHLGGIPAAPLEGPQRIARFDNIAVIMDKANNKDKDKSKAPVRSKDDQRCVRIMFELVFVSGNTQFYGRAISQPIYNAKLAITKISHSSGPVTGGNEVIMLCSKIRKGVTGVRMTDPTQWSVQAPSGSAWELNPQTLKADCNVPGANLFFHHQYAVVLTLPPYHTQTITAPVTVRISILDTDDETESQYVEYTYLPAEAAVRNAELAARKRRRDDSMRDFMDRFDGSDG

[4] = target: T4, GST-Dm-Relish (UniProt Q94527)
T4 sequence: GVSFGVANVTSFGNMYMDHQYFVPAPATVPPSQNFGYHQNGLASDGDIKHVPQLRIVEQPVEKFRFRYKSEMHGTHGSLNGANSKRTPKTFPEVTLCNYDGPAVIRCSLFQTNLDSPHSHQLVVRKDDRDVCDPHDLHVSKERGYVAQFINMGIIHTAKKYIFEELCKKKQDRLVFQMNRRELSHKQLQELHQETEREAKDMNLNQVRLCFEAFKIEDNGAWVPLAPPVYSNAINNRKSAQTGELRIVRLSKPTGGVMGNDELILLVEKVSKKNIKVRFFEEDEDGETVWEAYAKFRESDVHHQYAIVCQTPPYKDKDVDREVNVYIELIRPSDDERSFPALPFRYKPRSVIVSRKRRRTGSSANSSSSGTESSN

[5] = target: T5, GST-Aq-NF-kB (UniProt A9Y5G7)
T5 sequence: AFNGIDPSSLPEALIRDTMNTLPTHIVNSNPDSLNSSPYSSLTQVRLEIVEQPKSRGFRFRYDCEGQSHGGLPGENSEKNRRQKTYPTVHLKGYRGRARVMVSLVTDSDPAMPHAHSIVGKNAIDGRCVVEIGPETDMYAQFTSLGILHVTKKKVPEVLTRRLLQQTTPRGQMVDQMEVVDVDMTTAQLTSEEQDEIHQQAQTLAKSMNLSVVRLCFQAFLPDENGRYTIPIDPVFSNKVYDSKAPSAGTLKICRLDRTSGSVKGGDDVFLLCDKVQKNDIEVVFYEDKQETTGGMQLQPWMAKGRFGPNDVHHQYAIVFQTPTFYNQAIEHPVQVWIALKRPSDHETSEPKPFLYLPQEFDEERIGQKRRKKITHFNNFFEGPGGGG

Row | Sequence | binding signal [1] [z-score] | binding signal [2] [z-score] | binding signal [3] [z-score] | binding signal [4] [z-score] | binding signal [5] [z-score]
1 | CCGATTAACATCAGGATTTTCTATGATGTTAATCGGGTCTTGATTCGCTTGACGCTGCTG | 0.527 | -0.504 | 0.192 | 0.364 | 0.379
2 | CCGATTAACATCAAATGACGGAATGATGTTAATCGGGTCTTGATTCGCTTGACGCTGCTG | -0.15 | 0.314 | 0.123 | -0.182 | -0.0805
3 | CCGATTAACATCAAGTACTGGATTGATGTTAATCGGGTCTTGATTCGCTTGACGCTGCTG | -0.565 | 0.416 | -0.339 | 0.317 | -0.389
4 | CCGATTAACATCACAGTGATAGTTGATGTTAATCGGGTCTTGATTCGCTTGACGCTGCTG | -0.473 | -0.251 | -0.00438 | 0.00686 | -0.298
5 | CCGATTAACATCACACATTTCACTGATGTTAATCGGGTCTTGATTCGCTTGACGCTGCTG | -0.0236 | 0.00124 | 0.473 | 0.267 | -0.165
6 | CCGATTAACATCACCAATGATACTGATGTTAATCGGGTCTTGATTCGCTTGACGCTGCTG | -0.333 | -0.0209 | -0.34 | 0.0369 | -0.413
7 | CCGATTAACATCACGCTTTAGGCTGATGTTAATCGGGTCTTGATTCGCTTGACGCTGCTG | -0.557 | -0.44 | -0.376 | -0.349 | -0.628
8 | CCGATTAACATCAGCGGTTGCTGTGATGTTAATCGGGTCTTGATTCGCTTGACGCTGCTG | -0.467 | -0.441 | -0.501 | -0.243 | -0.355
9 | CCGATTAACATCACACAAGGCGATGATGTTAATCGGGTCTTGATTCGCTTGACGCTGCTG | -0.135 | -0.955 | 0.239 | -0.0241 | -0.526
10 | CCGATTAACATCAAGCGATCTCCTGATGTTAATCGGGTCTTGATTCGCTTGACGCTGCTG | -0.154 | -0.713 | -0.664 | -1.25 | -0.547
